This is one part of the list.
Tests used:
[1] = tested on: HSkMC (human skeletal muscle cells); assay: cytotoxicity call (relative viability < 0.9); conditions: 10 µM
[2] = tested on: HepG2; assay: cytotoxicity call (relative viability < 0.9); conditions: 10 µM
[3] = tested on: S. aureus RN4220; assay: growth inhibition call (relative growth <= 0.2); conditions: 50 µM

SMILES | cytotoxicity call [1] | cytotoxicity call [2] | growth inhibition call [3]
C#Cc1nccnc1OC | inactive | inactive | inactive
Cc1ccc(C(N)=O)cc1N(C)S(C)(=O)=O | inactive | inactive | inactive
CC(C)CC#Cc1ccc2c(c1)O[C@H](CN(C)C(=O)Cc1ccncc1)[C@@H](C)CN([C@@H](C)CO)S2(=O)=O | inactive | inactive | inactive
Cc1cn(CCN2CCN(c3ccccc3-c3cc(C#N)cc(C(=O)NCCCN4CCCC4)c3)CC2)c2ccccc12 | active | active | inactive
COc1ccc(NC(=O)Nc2ccc3c(c2)C(=O)N([C@@H](C)CO)C[C@H](C)[C@H](CN(C)CC2CCCCC2)OCCCC[C@H](C)O3)cc1 | inactive | active | inactive
COc1cccc(C(=O)Nc2ccc3c(c2)C(=O)N(C)[C@@H]2CC[C@@H](CC(=O)NCCCN4CCOCC4)O[C@H]2CO3)c1 | inactive | inactive | inactive
C[C@H](CO)N1C[C@H](C)[C@@H](CN(C)Cc2ccc(Oc3ccccc3)cc2)Oc2ccc(NC(=O)Cn3cnnn3)cc2C1=O | inactive | inactive | inactive
CN1C(=O)/C(=C\NCc2ccccc2)C(=O)c2c1n(C)c(=O)n(C)c2=O | inactive | inactive | inactive
COc1cccc(-c2ccc3c(c2)O[C@@H](CN(C)C(=O)C2CCC2)[C@H](C)CN([C@H](C)CO)S3(=O)=O)c1 | inactive | inactive | inactive
C[C@H](CO)N1C[C@H](C)[C@H](CN(C)Cc2ccc(C(=O)Nc3ccccc3N)cc2)Oc2ccc(NC(=O)Cc3cn(C)c4ccccc34)cc2C1=O | inactive | inactive | inactive
O=c1[nH]nc2ccccn12 | inactive | inactive | inactive
COc1ccc(S(=O)(=O)Nc2cccc3c2O[C@H](CN(C)C(=O)NC(C)C)[C@H](C)CN([C@@H](C)CO)C3=O)cc1 | inactive | inactive | inactive
COc1ccc(NC(=O)N(C)C[C@H]2Oc3cc(C#CCN(C)C)ccc3S(=O)(=O)N([C@H](C)CO)C[C@@H]2C)cc1 | inactive | inactive | inactive
C[C@@H]1CCCCO[C@H](CN(C)CC2CCCCC2)[C@H](C)CN([C@@H](C)CO)C(=O)c2cc(NC(=O)CCC(F)(F)F)ccc2O1 | inactive | inactive | inactive
Cn1cnc(S(=O)(=O)N[C@H]2CC[C@@H](CC(=O)N3CCN(c4ccccc4)CC3)O[C@@H]2CO)c1 | inactive | inactive | inactive
COc1ccc(S(=O)(=O)N(C)C[C@@H]2Oc3c(NS(=O)(=O)c4cn(C)cn4)cccc3C(=O)N([C@@H](C)CO)C[C@H]2C)cc1 | inactive | inactive | inactive
C[C@@H]1CCCCO[C@H](CN(C)S(C)(=O)=O)[C@@H](C)CN([C@H](C)CO)C(=O)c2cc(NS(=O)(=O)c3cn(C)cn3)ccc2O1 | inactive | inactive | inactive
CCC(=O)OC1C2CC3=C4CC(=O)OC(c5ccoc5)C4(C)CCC3C(C)(C2=O)C(CC(=O)OC)C1(C)C (centres undefined) | inactive | inactive | inactive
COc1cccc(S(=O)(=O)N2C[C@@H](O)COC[C@H]3O[C@H](CC(=O)NCCCN4CCOCC4)CC[C@@H]32)c1 | inactive | inactive | inactive
CO[C@H]1CN(C)C(=O)c2cc(NC(=O)C3CC3)ccc2OC[C@@H](C)N(C(=O)C2CCOCC2)C[C@H]1C | inactive | inactive | inactive
COc1ccc(S(=O)(=O)N(C)C[C@@H]2Oc3ccc(NS(=O)(=O)c4ccccc4)cc3CC(=O)N([C@H](C)CO)C[C@H]2C)cc1 | inactive | inactive | inactive
C[C@@H]1CCCCO[C@H](CN(C)S(=O)(=O)c2cn(C)cn2)[C@@H](C)CN([C@@H](C)CO)C(=O)c2cc(NC(=O)Nc3cccc4ccccc34)ccc2O1 | inactive | inactive | inactive
CCOC(=O)N1CCN(C(=O)C2CCN(S(=O)(=O)N(CC)CC)CC2)CC1 | inactive | inactive | inactive

— the antibiotic and cytotoxicity screens of Wong et al. (2023)
